Among all 310,000 compounds or so, about 18,000 (5.8%) were called active. This list was built around the results that the source calls inconclusive (neither active nor inactive); the mix of calls is not that of the screen. Calls come from the whole dose curve; as a rule, active = well fitted inhibition curve with a large enough effect; inconclusive = small, poorly fitted or top-dose-only effect, or another doubt; inactive = no such curve, though single readings can be large or run the other way. Potencies of inconclusive entries are left out as doubtful fits.
Assay: Primary qHTS for delayed death inhibitors of the malarial parasite plastid, 48 hour incubation
Conditions: P. falciparum luciferase growth in erythrocytes; series mostly up to 28.7 µM; activity change, negative = inhibition: at the top concentration
Method in brief: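 Parasite viability was followed by luminescence of a genomically integrated firefly luciferase. Cultures held 0.1% parasitemia at 2% hematocrit (final), incubated under 5% CO2 at 37 C.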
% is set by controls: 0 for no effect and ±100 for the full control effect; potency is the fitted concentration of half-maximal effect; tags give direction and shape of the fitted curve.

Structure (SMILES) | Potency | activity change, negative = inhibition
COC(=O)CSc1nc(NCC(C)C)nc(N2CCOCC2)n1 | inconclusive [inhibitor, single point] | –
CC(C)CC1c2[nH]c3ccccc3c2CCN1CCCn1cccn1 (stereo not drawn) | inconclusive [inhibitor, partial curve] | –
Cc1ccc(S(=O)(=O)N2CCOCC2)cc1C(=O)OCC(=O)Nc1ccc2[nH]c(=O)[nH]c2c1 | – | inactive: 36%
C=CCn1c(SCC(=O)OC)nc2sc3c(c2c1=O)CCN(C)C3 | inconclusive [inhibitor, full curve] | –
CCCCS(=O)CC(CS(=O)CCCC)OC(=O)c1ccc(C)cc1 (stereo not drawn) | – | inactive: 3.63%
Cc1ccc2c(c1)C1CN(C)CCC1N2S(=O)(=O)c1cccc(F)c1 (stereo not drawn) | inconclusive [inhibitor, single point] | –
COC(=O)Cc1c(O)ccn(Cc2cccc3ccccc23)c1=O | – | inactive: -9.35%
O=C(C[n+]1cccc(CNC(=O)c2ccc(OC(F)F)cc2)c1)Nc1ccc(SC(F)F)cc1 | active: 1.65 µM | –
CCN(CC#CCC(O)(c1ccccc1)c1ccccc1)C(C)C | active: 8.28 µM | –
COc1ccc(-c2cc(C(=O)N3CCCCCC3)c3cc(C)ccc3n2)cc1 | inconclusive [inhibitor, single point] | –
COc1ccccc1N1N=C(C(=O)c2ccccc2)C2C(=O)N(c3ccc(Br)cc3)C(=O)C21 (stereo not drawn) | inconclusive [inhibitor, single point] | –
C=CCOc1ccc(CN(C)c2ccc(S(=O)(=O)N3CCN(C)CC3)cc2[N+](=O)[O-])cc1 | inconclusive [inhibitor, single point] | –
O=C(Cn1c(C(=O)NCc2ccco2)cc2sccc21)c1ccccc1 | inconclusive [inhibitor, single point] | –
CCC(c1nnnn1C(C)(C)CC)N1CCN(c2ccccc2F)CC1 (stereo not drawn) | inconclusive [inhibitor, single point] | –
O=C(CS(=O)CC(=O)N(c1cccc(F)c1)C(C(=O)NC1CCCCC1)c1ccco1)Nc1ccc(F)cc1 (stereo not drawn) | inconclusive [inhibitor, partial curve] | –
O=C1NC(=O)/C(=C\c2ccc(OCc3cnc(Cl)s3)cc2)S1 | – | inactive: 51.6%
O=C(NNC(=O)c1ccc(Br)o1)c1ccc(NC(=O)c2ccccc2)cc1 | – | inactive: 13%
CCOC(=O)[C@H]1[C@H]2COc3ccc(OC)cc3[C@@H]2N2C(=O)CN(Cc3ccc(F)cc3)C(=O)[C@@]12C | inconclusive [inhibitor, partial curve, poor fit] | –
O=S(=O)(Nc1cccc(-n2cnnn2)c1)c1ccc(F)cc1 | – | inactive: -22.8%
O=c1c2ccccc2nc(SCCN2CCOCC2)n1CCc1ccccc1 | inconclusive [inhibitor, single point] | –
CCN1C(=O)c2ccccc2Sc2ccc(C(=O)NCCCN(CC(C)C)CC(C)C)cc21 | active: 10.4 µM | –
Cc1ccc(C)c(N(C(=O)Cn2nnc(-c3cccs3)n2)C(C(=O)NC2CC2)c2ccc(C)o2)c1 (stereo not drawn) | inconclusive [inhibitor, partial curve] | –

Structure (SMILES) | Potency | activity change, negative = inhibition
CCC1CCCCN1C(=O)CSC1=NN2CCCC(=O)N=C2S1 (stereo not drawn) | inconclusive [inhibitor, partial curve, poor fit] | –
CC(=O)c1cccc(NC(=O)C2CC(=O)N(c3cccc(C)c3C)C2)c1 (stereo not drawn) | active: 1.47 µM | –
O=C1CCCN1CCC1CCN(C2CC(=O)N(Cc3ccc(N4CCCC4=O)cc3)C2=O)CC1 (stereo not drawn) | inconclusive [inhibitor, partial curve, poor fit] | –
CC(C)c1ccc(S(=O)(=O)N2CCC(C(=O)N3CCC3)CC2)cc1 | inconclusive [inhibitor, single point] | –
CC1CC/C(=C\c2ccc3c(c2)OCO3)C(=O)/C1=C/c1ccc2c(c1)OCO2 (stereo not drawn) | inconclusive [inhibitor, partial curve] | –
O=C(Nc1ccc(-c2cn3ccccc3n2)cc1)c1cccs1 | – | inactive: 160%
O=[N+]([O-])c1ccc(Nc2nc(N/N=C\c3ccc4c(c3)OCO4)nc(N3CCCCC3)n2)cc1 | active: 2.08 µM | –
COc1ccc(CCNC(=O)CSc2nnc3ccc(-c4ccccn4)nn23)cc1 | – | inactive: 8.89%
Clc1cccc(CN2CCN(c3nc4nonc4nc3NC3CC3)CC2)c1 | inconclusive [inhibitor, single point] | –
COc1ccc(/C(C)=N/Nc2ccc(F)cc2F)c(O)c1 | – | inactive: 146%
COc1ccc(NC(=O)CSc2nnc(-c3cccs3)n2-c2ccccc2)cc1 | inconclusive [inhibitor, partial curve, poor fit] | –
CN(C)CCCNC(=S)Nc1ccc(-c2ccccc2)cc1 | inconclusive [inhibitor, single point] | –
O=C1NC(=O)C(CCc2ccncc2)(Cc2ccc(OCc3ccccc3)cc2)C(=O)N1 | inconclusive [inhibitor, full curve, poor fit] | –
CCOC(=O)C1=C(c2ccccc2)Nc2ncnn2C1c1cc(OC)cc(OC)c1OC (stereo not drawn) | inconclusive [inhibitor, single point] | –
CCC1(C)OCC(Cn2c3ccccc3c3ccccc32)O1 (stereo not drawn) | inconclusive [inhibitor, single point] | –
CN=C1SC(C(=O)Nc2ccccc2Cl)CC(=O)N1c1ccc(OC(F)(F)Cl)cc1 (stereo not drawn) | active: 10.4 µM | –
O=C(Cc1ccccc1)NC(Nc1cccc2ccccc12)C(Cl)(Cl)Cl (stereo not drawn) | inconclusive [inhibitor, single point] | –
CC(C)N1C(=O)c2ccccc2C1C(=O)NC1CCCCCC1 (stereo not drawn) | – | inactive: -15.1%
CCCC(c1nnnn1Cc1ccco1)N1CCN(c2ccccc2)CC1 (stereo not drawn) | inconclusive [inhibitor, partial curve] | –
CC(C)C(C(=O)NCC1CCCO1)N(Cc1ccco1)C(=O)CNS(=O)(=O)c1ccc(F)cc1 (stereo not drawn) | inconclusive [inhibitor, partial curve, poor fit] | –
Cc1cc(NC(=O)CSc2ccccn2)no1 | – | inactive: 12.4%
